Among all 350,000 compounds or so, about 31,000 (8.9%) were called active. Inconclusive results, whose numbers are uncertain, are shown with a selection of clear calls. The call rests on the fitted dose curve; in most records, active means well fitted inhibition curve with a large enough effect; inconclusive means small, poorly fitted or top-dose-only effect; inactive means no such curve, though single readings can be large or run the other way. Potencies beside an inconclusive call are fits to weak or partial responses and may not hold up.
Each molecule was assayed against Histone-lysine N-methyltransferase EHMT2 (Homo sapiens) (UniProt Q96KQ7) (assay: qHTS Assay for Inhibitors of Histone Lysine Methyltransferase G9a). Conditions: G9a H3K9 monomethylation, AlphaScreen, 2 h; activity, negative = inhibition: at 59 µM (top of the series) unless noted.
Sequence of UniProt Q96KQ7 (Q96KQ7 whole entry, looked up): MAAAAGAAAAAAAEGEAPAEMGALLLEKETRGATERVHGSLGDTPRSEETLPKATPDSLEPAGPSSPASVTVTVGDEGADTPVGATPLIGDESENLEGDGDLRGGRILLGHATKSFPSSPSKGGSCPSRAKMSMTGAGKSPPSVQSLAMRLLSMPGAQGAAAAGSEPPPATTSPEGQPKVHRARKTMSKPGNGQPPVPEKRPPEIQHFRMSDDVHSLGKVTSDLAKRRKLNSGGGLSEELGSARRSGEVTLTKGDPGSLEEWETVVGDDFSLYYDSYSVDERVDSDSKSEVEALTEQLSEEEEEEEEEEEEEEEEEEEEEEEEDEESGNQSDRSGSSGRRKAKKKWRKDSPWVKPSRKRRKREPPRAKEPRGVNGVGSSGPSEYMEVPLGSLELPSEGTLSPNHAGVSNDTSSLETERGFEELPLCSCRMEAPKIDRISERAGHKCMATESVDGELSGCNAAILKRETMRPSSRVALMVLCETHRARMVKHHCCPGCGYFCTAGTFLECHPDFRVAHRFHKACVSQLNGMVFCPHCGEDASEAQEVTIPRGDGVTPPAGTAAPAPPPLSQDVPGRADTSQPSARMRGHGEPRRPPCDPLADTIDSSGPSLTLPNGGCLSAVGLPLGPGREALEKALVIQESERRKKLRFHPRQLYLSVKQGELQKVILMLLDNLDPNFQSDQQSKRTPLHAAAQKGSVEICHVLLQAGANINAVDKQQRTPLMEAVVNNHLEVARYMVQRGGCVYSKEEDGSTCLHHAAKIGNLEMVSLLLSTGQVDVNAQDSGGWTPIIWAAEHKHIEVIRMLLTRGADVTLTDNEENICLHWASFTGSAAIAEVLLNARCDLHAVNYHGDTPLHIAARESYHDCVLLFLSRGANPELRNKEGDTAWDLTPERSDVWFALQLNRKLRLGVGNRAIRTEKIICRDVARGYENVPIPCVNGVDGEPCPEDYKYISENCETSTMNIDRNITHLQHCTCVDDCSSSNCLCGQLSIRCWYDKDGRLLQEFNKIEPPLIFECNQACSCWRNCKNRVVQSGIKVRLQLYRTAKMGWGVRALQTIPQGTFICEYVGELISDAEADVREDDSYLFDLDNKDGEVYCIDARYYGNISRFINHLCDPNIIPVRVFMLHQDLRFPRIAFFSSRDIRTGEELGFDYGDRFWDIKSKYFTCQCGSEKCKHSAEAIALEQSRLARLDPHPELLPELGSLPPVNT
Outline: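 AlphaScreen read-out: biotin-H3K9 peptide (500 nM) methylation by 20 nM enzyme with 20 uM SAM, 2 h at room temperature after 15 min compound preincubation; anti-monomethyl H3K9 antibody plus donor/acceptor beads, 10 min dark.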
CC(OC(=O)CCN1C(=O)c2cccc([N+](=O)[O-])c2C1=O)C(=O)Nc1cc(Cl)cc(Cl)c1 (stereo not drawn) was tested, and the Potency was active: 25.1 µM. For Clc1ccc(-n2ncc3c(NCCCn4ccnc4)ncnc32)cc1, the Potency was active: 25.1 µM. With O=C(c1cccc(F)c1)N1CCC[C@@]2(CCN(Cc3ccncc3)C2)C1 the activity, negative = inhibition was inactive: 0.244% [at 12.7 µM]. In the case of C=CCN(C(=O)c1csnn1)C(C(=O)NCc1ccc(F)cc1)c1ccccc1 (stereo not drawn), the Potency is reported as “inactive”. With COc1ccccc1-c1nnc(NC(=O)CCS(=O)(=O)c2ccccc2)o1 the Potency was inconclusive: 10 µM [inhibitor, partial curve, poor fit]. In the case of Cc1nc2ccc(NC(=O)Cc3c(F)cccc3Cl)cc2s1, the Potency is reported as “inactive”. With O=C(Nc1cccnc1)c1ccc(Cl)c(S(=O)(=O)N2CCCC2)c1 the Potency was inconclusive: 89.1 µM [inhibitor, single point]. C/C(=N\NS(=O)(=O)c1ccccc1)c1cccc(NC(=O)c2cccc(Cl)c2)c1 was tested, and the Potency was inconclusive: 79.4 µM [inhibitor, single point]. N=c1c2c(-c3ccccc3)c(-c3ccccc3)n(Cc3ccccc3)c2ncn1CCCn1ccnc1 was tested, and the Potency was inconclusive: 14.1 µM [inhibitor, partial curve, poor fit]. In the case of COc1ccc(OC)c(CN2CCN(CCCc3ccccc3)C(CCO)C2)c1 (stereo not drawn), the Potency is reported as “inactive”. In the case of O=C(O)CC1(CC(=O)Nc2ccc3ccccc3n2)CCCCC1, the Potency is reported as inconclusive: 89.1 µM [inhibitor, partial curve, poor fit]. COC(=O)c1ccccc1NC(=O)c1ccc(-c2nc(CSc3ccc(C)cc3)c(C)o2)cc1 was tested, and the Potency was inconclusive: 7.08 µM [inhibitor, single point]. In the case of CCCOc1ccc(C(=O)CCC(=O)OC(C)C(=O)Nc2ccc(NC(C)=O)cc2)cc1 (stereo not drawn), the Potency is reported as inconclusive: 50.1 µM [inhibitor, partial curve]. With CCn1cc(S(=O)(=O)c2cccc(Cl)c2)c(=O)c2cc(F)c(N3CCN(C)CC3)cc21 the Potency was “inactive”. In the case of CN1CCN(S(=O)(=O)c2ccc(Cl)c3ccccc23)CC1, the Potency is reported as inconclusive: 39.8 µM [inhibitor, partial curve, poor fit]. For Cc1ccc(CNC(=O)C2CCN(S(=O)(=O)c3cccs3)CC2)o1, the Potency was active: 8.91 µM. With COc1cccc(N2CCN(C(=O)c3cc(-c4ccc(F)cc4)[nH]c3C)CC2)c1 the Potency was inconclusive: 89.1 µM [inhibitor, single point]. In the case of COc1cccc(-c2noc(CCCC(=O)NCc3ccco3)n2)c1, the Potency is reported as inconclusive: 0.355 µM [inhibitor, partial curve, poor fit].
Further: nearly all actives have a fitted effect of over 75% in size.
On the % scale 0 is the no-effect control and ±100 the full control effect; potency means the concentration at half of the fitted maximal effect; tags describe the fitted curve by direction and shape.
